# Whole data set: some 33,000 sequences, median “E-score (-0.5 to 0.5)” near -0.013, cut for the highest 2% near 0.3. The list shows a part of the results.
# Target: T1, Msn1 (UniProt P22148)
# T1 sequence: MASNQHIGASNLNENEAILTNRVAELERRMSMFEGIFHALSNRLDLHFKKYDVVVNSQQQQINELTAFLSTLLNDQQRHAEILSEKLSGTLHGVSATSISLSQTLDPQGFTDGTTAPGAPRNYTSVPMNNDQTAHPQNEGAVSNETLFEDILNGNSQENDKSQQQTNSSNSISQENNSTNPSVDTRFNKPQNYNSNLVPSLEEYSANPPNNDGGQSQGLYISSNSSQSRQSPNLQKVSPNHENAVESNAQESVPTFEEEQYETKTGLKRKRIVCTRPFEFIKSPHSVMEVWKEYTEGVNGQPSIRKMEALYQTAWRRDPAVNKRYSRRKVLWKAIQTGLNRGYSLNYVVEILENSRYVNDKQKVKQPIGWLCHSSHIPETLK
# Assay: PBM E-score (8-mer binding enrichment) (E-score (-0.5 to 0.5)); higher = stronger / more preferred TF binding; most listed sequences are background and not binding sites
# Conditions: protein concentration: 200 nM; construct: GST-full length
# Method in brief: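 Masliner-normalised scans of fluorescent anti-GST signal were the basis for scoring. That signal came from GST-tagged yeast transcription factors applied at about 100-200 nM to double-stranded universal all-10-mer Agilent arrays on fresh or once-stripped slides. Each ungapped eight-base word, pooled with its reverse complement, received an E-score from the Universal PBM Analysis Suite.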
row,Sequence,PBM E-score
1,ACAAGTAC,0.271
2,CACAGCAC,-0.194
3,AATTTTCG,0.0628
4,AGGACAAG,0.472
5,GGCTACAC,-0.121
6,CCGCCATA,0.0434
7,CCCACTCC,-0.166
8,AAGCCACA,-0.0893
9,CATCTCCG,0.129
10,GCACACCA,-0.177
11,ATTCTTCC,0.0444
12,TCGCGTCA,0.113
13,GTCCATTA,0.3
14,CCCGGAGC,0.0826
15,ATGTCTGC,0.286
16,GCACTATA,0.0265
17,AACGACCC,-0.178
18,CAGATGGA,0.133
19,CGCGATAA,0.0372
20,AACAGGTC,-0.18
21,TGACAGAA,0.134
22,ATGAAAAC,0.226

row,Sequence,PBM E-score
1,ACTACACA,0.0685
2,CTCCTAAG,-0.194
3,GGGTGATA,-0.212
4,CACAGACA,0.36
5,CCGATAAA,0.197
6,ATGCATTG,0.0366
7,AGGGGCCG,-0.335
8,ATTACGCA,0.0281
9,CTATGCCC,-0.181
10,AAACTGGG,-0.154
11,GACCATCC,-0.268
12,AAACCTCT,-0.185
13,CGAGGTCC,-0.0236
14,ATTCCATG,0.194
15,ACCTTGTC,0.176
16,AGAGTTCC,-0.075
17,AGAGTCCG,0.0522
18,ACTCCGTG,0.0483
19,GATATACA,0.0411
20,GGAATTAC,0.0804
21,CGAGGCAC,-0.137
22,CCGTAATA,-0.0337

row,Sequence,PBM E-score
1,CTCGTTTC,0.0421
2,CGAGAGAA,0.0189
3,TACGTTGA,-0.0869
4,CGCTCTCA,-0.22
5,AATAGGAT,0.157
6,AGCTTCAA,0.0517
7,TAGTGTCA,0.102
8,AGAATCCT,-0.163
9,AAGACAGC,-0.0127
10,ATTCACCC,-0.0993
11,ATTTTAAC,0.0267
12,TCCCGGAA,0.198
13,GAAATCGA,0.0782
14,CCCTTCGA,-0.188
15,GTGGGGTA,-0.0896
16,GAGGTTGC,-0.361
17,AGAACTCC,-0.226
18,TGTTCGAA,0.112
19,AACATGAA,-0.0316
20,ACTCGTTG,-0.00397
21,AAAGTAGC,-0.0657
22,AAGCAATC,0.0939

row,Sequence,PBM E-score
1,ACTCTGTA,-0.156
2,ATTACATG,0.0976
3,ATGACGGG,-0.116
4,CATGGAAG,-0.121
5,AACCCCCT,-0.315
6,TACAGTAA,0.00283
7,CTTATGAA,-0.0045
8,CGTTATCA,0.0217
9,GTTCGAAA,0.191
10,AAGTTTTA,0.0714
11,ATAGGTTC,-0.0899
12,CTATCTTC,0.0439
13,GCAAACGA,0.0657
14,ACGCGAGA,-0.00082
15,GAAGCGGA,0.0317
16,AGGACTAT,-0.131
17,GAGCAAAC,-0.0763
18,CCCCTAAC,-0.169
19,CCCGGCGA,-0.0393
20,CATCACAG,-0.14
